Laboratory results: the RNAGym collection of RNA variant scans (doi:10.1093/nar/gkz1192)
Read counts are not given, so values of variants with three or more changes are uncertain.

B1: CPEB3 Ribozyme (parent)
chain: UAACAGGGGGCCACAGCAGAAGCGUUCACGUCGCAGCCCCUGUCAGAUUCUGGUGAAUCUGCGAAUUCUGCUGUAUAUCUC

Variants of: B1
Assay: self-cleavage, relative activity (ratio to wild type); higher = more cleavage; in vitro, sequencing
Outline: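 For each CPEB3 ribozyme variant, relative activity is its cleaved/total read fraction divided by the unmutated ribozyme's. Barcoded error-prone PCR libraries were transcribed by T7 RNA polymerase (5 hours, 37°C) and held in DNase I for 15 min before an EDTA stop, with cleavage occurring throughout. Template-switching reverse transcription and Illumina sequencing were used to read the RNAs. A 5-read minimum applied, and results are the mean of three batches.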

Variant	self-cleavage
C4U U25C C29U U51C A56U G61A A77G	0.09
C4U U25C U58C A64G	0.15
C4U U25C U67A	0.12
C4U U31C A35U U58C C62A	0.15
C4U U31C A56G U80A	1.16
C4U U41C A47G U48C U67C	0.12
C4U U54C U67C	0.35
C4U U58C A64G U76A	0.67
C4U U58C U74A	1.14
A5C A13G A15U A47G U60C A64G U76G	0.32
A5C A13G U31C C37U U78A	0.32
A5C A13U A57G U58C A65U U66C	0
A5C A13U C27A A64G U74G U78A	0.08
A5C A13U G24C U26C C39U	0.24
A5C A15C G42C	0.33
A5C A15C U60C	0.62
A5C A15G A20G A35U G61A U78C	0.04
A5C A15G A45U U58C	0.47
A5C A15G A45U U74C	0.7
A5C A15G A47U U67G	0.2
A5C A15G U48C U60C U72G G73A	0.11
A5C A15U A20U C29G C38A	0.27
A5C A15U A21G U31C G33A U43C A65G	0.04
A5C A15U U26C U66C G70A U72C	0.22

Variant	self-cleavage
A5C A18G A45G	0.65
A5C A18G C29U A56G	0.09
A5C A18G C37G U48C	0.08
A5C A18G U26C U60A	0.12
A5C A18G U58C A77G	0.19
A5C A18U A64U	0.17
A5C A18U U54C U72C	0.24
A5C A20G G22U U74A	0.32
A5C A20G U25A C39U G61C	0.09
A5C A20U C37U A57G U67C U69A U76C	0.14
A5C A21G A45G U54A U60C U74C	0.98
A5C A21G U31C C39U U43C A65G U78C	0.04
A5C A28C U43C	0.43
A5C A28G C40U A47G U60C U72C	0.04
A5C A28G U72C	0.27
A5C A28U U72C	1.08
A5C A45G A65G	0.5
A5C C11A A15U A45C U60C	0.22
A5C C12A A18G A35G U66A	0.18
A5C C12A U25A U51A U69G U72C	0.04
A5C G6A A28G U41C A64G U69A U76C	0.05
A5C G8A U51C	0.47
A5C G8U U43C U67C	0.12
A5C G9A A20G U43A A45U	0.08

Variant	self-cleavage
A5C G9U A56U	0.29
A5C G10U G46U	0.27
A5C G19U A56U A64U U69A A77G C79U	0.07
A5C G33A A47U A57U G73A U74C	0.08
A5C G36A U43C G55C A57G	0.11
A5C G36U A45G A47G	0.22
A5C U25A U26A U48A A65G	0.07
A5C U25C U54C	0.29
A5C U26C U41A U49C A65U	0.09
A5C U26G A35G U80C	0.65
A5C U31C U54A U74C	1.15
A5C U48C U51A A57G U60C U80C	0.32
A5C U49A U51A U69A	0.23
A5C U54C U60A U80A	0.35
A5C U60A U69A U80A	0.37
A5C U67C U72C U76C A77G	0.17
A5G A13C A15C U49C U72A	0.22
A5G A13C A18G U31C	0.06
A5G A13C A20G A47G U72C	0.4
A5G A13C A77C	0.86
A5G A13C C40U A47C A56G U66C	0.11
A5G A13C U60C U66C	0.25
A5G A13G A15U U78C U80C	0.2
A5G A13G A28C	0.39

Variant	self-cleavage
A5G A13G A35U U41G A56U U72A	0.16
A5G A13G A45G U51A	0.49
A5G A13G A56U	0.27
A5G A13G C17U A20G	0.35
A5G A13G G22U U69C	0.5
A5G A13G G24A A45G U74C	0.47
A5G A13G G24A U43A A65U	0.26
A5G A13G G42U	0.41
A5G A13G U25A U66A	0.08
A5G A13G U25C A35U C71G U72C	0.08
A5G A13G U26A A28G A35U	0.06
A5G A13G U26C A28G C59G U80A	0.31
A5G A13G U31C C38A U49C G63U	0.07
A5G A13G U41A A57G U66C U72C	0.13
A5G A13G U54C A65U U67C A77U U80C	0.08
A5G A13G U76A	0.5
A5G A13G U80C	0.58
A5G A13U A15G U25A A45G U58C	0.14
A5G A13U A15G U54C	0.52
A5G A13U A15U	0.58
A5G A13U A18U A28U A35G G70A U72C	0.13
A5G A13U A20G U31C U41A	0.12
A5G A13U A21G U26C	0.19
A5G A13U A21U U60C	0.09

Variant	self-cleavage
A5G A13U A28G U31C	0.36
A5G A13U A28U U49C	0.05
A5G A13U A45G A47G	0.4
A5G A13U C29U U43A U67G C81U	0.07
A5G A13U C68U U72A	0.42
A5G A13U G19A U25C G52A U72C	0.13
A5G A13U U25C U51A U66C	0.18
A5G A13U U51A U67A U72A U74C	0.26
A5G A13U U51C	0.72
A5G A15C A21U U41C U60A	0.89
A5G A15C A45U	0.47
A5G A15C C62U	0.58
A5G A15G A20G U54A U76C A77U	0.6
A5G A15G A21G	0.5
A5G A15G A28G A47U	0.33
A5G A15G A28G U69A	0.46
A5G A15G A28G U80A	0.93
A5G A15G A35G	0.7
A5G A15G A35U C62U U78C	0.1
A5G A15G A56G A75U	0.39
A5G A15G A57G U66C	0.11
A5G A15G C23G U43A A64U U69G A77U	0.06
A5G A15G G24A	0.53
A5G A15G G30A U76C	0.13

Variant	self-cleavage
A5G A15G U25A U54C U67G	0.31
A5G A15G U26C U67C U72C U76A U80A	0.04
A5G A15G U41C U78A	0.54
A5G A15G U66A U74C A75G	0.29
A5G A15G U66C	0.58
A5G A15G U72C U80A	0.67
A5G A15U A18U	0.4
A5G A15U A20G	0.45
A5G A15U A20G U41G	0.09
A5G A15U A35G G70C	0.41
A5G A15U A35G U41A G70C	0.12
A5G A15U A35G U78C	1.12
A5G A15U A57G	0.19
A5G A15U A65C	0.5
A5G A15U C17G A28U A35G A64G	0.09
A5G A15U C23U A35G U60C U67C	0.24
A5G A15U C23U U69C U78C	0.1
A5G A15U G30C A35U	0.32
A5G A15U U26A U69C C81A	0.09
A5G A15U U41A A57G U67A	0.12
A5G A15U U49C U67A	0.07
A5G A15U U60C G63A U72A A75G	0.21
A5G A15U U80A	0.17
A5G A18C A35U U72C A75G U78A	0.17

Variant	self-cleavage
A5G A18C U48C U51C U67C	0.21
A5G A18G A20G G36U U43C U76C	0.28
A5G A18G A20G U49A	0.45
A5G A18G A21G U26C U67A U78C	0.51
A5G A18G A21U A64U	0.1
A5G A18G A28G U69C	0.26
A5G A18G C38U C39G U51C U58A	0.02
A5G A18G U26A U66C	0.25
A5G A18G U43C A45U U48A	0.27
A5G A18G U54A A56G U58C	0.11
A5G A18G U54A U72A U76C U80A	0.48
A5G A18G U69C	0.83
A5G A18G U76A	0.34
A5G A18U A35G A64C G73U	0.29
A5G A18U C37A A64G U80C	0.07
A5G A18U U25C U41C U43C U67C U72C	0
A5G A20C C32G A35G U41G U72A U74C	0.17
A5G A20G A21G U41A U54A U60C U67C	0.12
A5G A20G A75G	0.6
A5G A20G C32U U66C	0.13
A5G A20G U26A	0.42
A5G A20G U26A A28G G30A	0.28
A5G A20G U31A A35U A65C	0.25
